# Laboratory results taken from article PMC6212790.
# The list shows a part of the results. At the low end of the ranking, values are background and their order means little.
# Target: T1, GST-Rok-C97-191 (UniProt O34857)
# T1 sequence: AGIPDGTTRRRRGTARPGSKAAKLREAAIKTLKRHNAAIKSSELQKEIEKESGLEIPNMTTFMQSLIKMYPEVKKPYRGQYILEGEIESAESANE
# Experiment: protein binding microarray;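 also: rank score from −0.5 (least bound) to 0.5 (best bound)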
# Conditions: Rok is a gene silencer of Bacillus subtilis; high values mean tight binding; most listed sequences are background and not binding sites; double strand, one strand shown
row,Sequence,binding signal [E-score]
1,AAACGTAC,0.0928
2,AAGGTACG,-0.121
3,CCGTTAAA,0.0635
4,TAAGTCTA,0.127
5,CGAGCGTC,-0.148
6,CGTCCACA,-0.0974
7,ACATTGCA,0.0494
8,AGATTCCC,0.0107
9,ACCGACAT,-0.16
10,ATCACGTC,-0.223
11,CTACAGTA,0.235
12,GCTAACTA,0.324
13,GAGGGCGC,-0.306
14,CGCAATAC,0.0892
15,ATGATATG,0.226
16,GAGGGCAC,-0.304
17,AATCCGCG,-0.0425
18,ATAGAAAA,0.267
19,ACCTTCAA,-0.121
20,CGAGTGAG,-0.0199
21,CCCACTTC,-0.179
22,CCTCAAGG,-0.331
23,ATCATGGA,-0.000195
24,CGAGGAAA,-0.193
25,TCGACGCA,0.0176

row,Sequence,binding signal [E-score]
1,CCACACTC,-0.323
2,ATTGCCAG,0.03
3,GACTGAGC,-0.0475
4,ATGGTAAT,0.253
5,CACGCGTA,-0.079
6,GGGAGGGA,-0.221
7,CCAACTCC,-0.177
8,AGCTCGAA,-0.102
9,AGAGTCAC,-0.277
10,CTTCGTCC,-0.209
11,CGTATGGA,-0.0296
12,TACCCCTA,0.0755
13,GTCTTAAC,-0.294
14,TAATGCAA,0.186
15,CCCGCGCA,-0.211
16,CCAAGTCG,-0.0866
17,AGGCTCAA,-0.315
18,ATCCCAAA,0.024
19,ATGCACGA,-0.0316
20,CCTGAACC,-0.277
21,ATAGCACG,0.0885
22,GTCGGCAA,-0.13
23,AGTGTAAT,0.179
24,ACCTCTGG,-0.202
25,AGTTTGCA,0.133

row,Sequence,binding signal [E-score]
1,TTAAGGAA,-0.117
2,GTAGTAAA,0.338
3,AACTGGTC,0.000777
4,CAATTCAA,0.00242
5,CCCCAGCG,-0.232
6,ACTATGTC,0.0678
7,AGTACCTG,-0.0538
8,CCGACATA,0.152
9,ATGCGTTG,-0.0732
10,GTGATGTA,0.0843
11,CCCAATGA,-0.194
12,GGCGCGAC,-0.141
13,ACGACCGA,0.00138
14,GCACCTGA,-0.175
15,ACTTCGCG,-0.0968
16,CGAGAAAA,0.0987
17,TACTTAAA,0.198
18,GTTAGAAA,0.195
19,ACCATACT,0.144
20,AGCTCGCA,-0.0853
21,GCAACAGC,-0.159
22,CAATGGTG,-0.119
23,ACTCGCAA,0.0586
24,CGGCCCGA,-0.245
25,AACATGTG,0.0826

row,Sequence,binding signal [E-score]
1,GGTCCTAC,-0.119
2,GCCCGATA,0.00316
3,GCCAGCAA,0.118
4,CAGCGAAA,0.0919
5,AATTTAAG,0.175
6,CGAACTAC,0.373
7,AAATCTTG,0.0764
8,AGGTATAG,0.231
9,GCCCGGAC,-0.205
10,CTCCCCTA,-0.243
11,CATGGGTC,-0.0107
12,TCCCTACA,-0.107
13,CGTGTTTA,0.0983
14,TAATCTCA,0.179
15,ATGCTGTG,0.144
16,GGTATTAC,0.212
17,TCAGAAAA,-0.198
18,AAGGTTGG,-0.0102
19,AGGGGAGC,-0.22
20,ATGGAGGG,-0.27
21,AGACACCT,-0.181
22,CACCAACA,-0.0417
23,TAAACTGA,0.0784
24,AGGGGTAG,0.126
25,GAATCTAA,0.188

row,Sequence,binding signal [E-score]
1,CCCGCCAC,-0.275
2,TAACTTGA,0.0586
3,TATACGGA,0.265
4,AGTACAAG,0.247
5,AGGAGGCC,-0.23
6,CCCAGTAG,0.245
7,ACGTGTTG,0.0125
8,TAAAAACA,0.162
9,ATGGTCAG,-0.115
10,ACCCTGGA,-0.0883
11,CCTACGTC,-0.139
12,CTCGCAAG,-0.188
13,GGATTTTA,0.227
14,ACTGGGTA,0.0664
15,ACGCGTGG,-0.123
16,CCACGATC,-0.147
17,AGGGGGTC,-0.461
18,AGTACGGA,0.164
19,AAAACGCT,-0.0297
20,ACTCGAGA,0.0428
21,CGCTCCTA,0.0547
22,AACCAGGT,-0.261
23,ATCTCTGG,0.0266
24,CCTCCTGA,-0.379
25,GCAAGCCC,-0.184

row,Sequence,binding signal [E-score]
1,GCCCACTA,-0.0546
2,AGCTAACG,0.0382
3,GGTTTTCA,-0.0782
4,AAGTCATC,-0.0329
5,AGATACAC,0.237
6,GCCCACGA,-0.34
7,CCCGGATA,-0.219
8,AGCCTGCG,-0.0945
9,ACCCTGAA,-0.141
10,CCTAGTGA,0.00582
11,AGGTAAAA,0.262
12,AATCCCCG,-0.183
13,GGAGAACA,0.0429
14,CGCAGTGC,0.00602
15,ATTGGCGG,-0.101
16,CATTGTGG,-0.0759
17,CGATGACC,-0.125
18,ATATCAGA,0.158
19,CTCACAAA,-0.132
20,AGCCCCCA,-0.257
21,AACTTCTA,0.246
22,CGCACCAG,-0.0622
23,GTCCCACA,-0.063
24,ACCGCCGA,-0.0492
25,CGCATTAA,0.0423

row,Sequence,binding signal [E-score]
1,CATCTCTC,-0.0253
2,TAAGGCCA,-0.25
3,AGGTCGGA,-0.222
4,TCAGTGGA,0.0206
5,GGTACCAC,0.126
6,CCTGTAAA,-0.048
7,CTAGCTAA,0.127
8,GGGTGGTA,-0.0481
9,ACAACGAG,-0.0859
10,GGATTCTA,0.293
11,AGTGAAAG,0.102
12,ATAAGTCG,0.109
13,ACTCATGC,-0.0442
14,GCGATTTA,0.234
15,TAGACTAA,0.172
16,CTGGCCCA,-0.359
17,ATCCGAAG,-0.0324
18,CGACACTA,-0.0236
19,GGTTCGCA,-0.152
20,AATCTCAC,0.0152
21,ATAATGCA,0.312
22,ATCGCATC,0.153
